Consider 98 variants from a collection of fitness landscapes (doi:10.1016/j.celrep.2020.107928).

The chains are these.
B1: Caulobacter ParB omega fusion; a variant is named by its letters at X, in order, B8GW30 (parent)
chain: MESVVVGEPGMSEGRRGLGRGLSALLGEVDAAPAQAPGEQLGGSREAPIEILQRNPDQPRRTFREEDLEDLSNSIREKGVLQPILVRPSPDTAGEYQIVAGERAWRAAQRAGLKTVPIMVRELDDLAVLEIGIIENVQRADLNVLEEALSYKVLMEKFERTQENIAQTIGKSXSHVANXMRLLXLPDEVQSYLVSGELTAXHARAIAAAADPVALAKQIIEGGLSVRETEALARKAPNLSAGKSKGGRPPRVKDTDTQALESDLSSVLGLDVSIDHRGSTGTLTITYATLEQLDDLCNRLTRGI

In all, about 81,000 sequences were measured (“one-hybrid fitness for binding NBS DNA”: median about -0.1, highest 2% from about 0.36 on). The list shows a part of the results. Where only a bound is given, the exact number is not on record here.

Variants of B1 are the subject of the test. Briefly: one-hybrid fitness for binding NBS DNA (the Noc-binding site; scaled: cognate 1, non-cognate 0); higher = stronger binding. Conditions: with NBS DNA site. The method, boiled down: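 On M9-minus-histidine containing 0.1 mM IPTG and 5 mM 3-AT, E. coli USO cells with a HIS3 reporter, site 19 bp from the promoter, grew 48 hours at 37°C to select Caulobacter ParB libraries randomised at four specificity codons. Plasmids from before and after were Illumina-sequenced, with three replicate libraries pooled and variants under 10 reads left out. Fitness is the log change in variant-to-wild-type read ratio, rescaled against cognate and non-cognate.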
In the case of KASM, the “one-hybrid fitness for binding NBS DNA” value was at most 0.2.

For RSVM, the “one-hybrid fitness for binding NBS DNA” value is at most 0.2.

For HRGR, the “one-hybrid fitness for binding NBS DNA” value is at most 0.2.

Turning to FTRR, the “one-hybrid fitness for binding NBS DNA” value stood at 0.238.

With PCCS, the “one-hybrid fitness for binding NBS DNA” value was at most 0.2.

Regarding PNPY, the “one-hybrid fitness for binding NBS DNA” value is at most 0.2.

Regarding DRWG, the “one-hybrid fitness for binding NBS DNA” value was at most 0.2.

Regarding LNQG, the “one-hybrid fitness for binding NBS DNA” value is at most 0.2.

Regarding CHPQ, the “one-hybrid fitness for binding NBS DNA” value is at most 0.2.

Consider ACGD, for which the “one-hybrid fitness for binding NBS DNA” value was at most 0.2.

Take KSTI: the “one-hybrid fitness for binding NBS DNA” value is at most 0.2.

As to KSVL, the “one-hybrid fitness for binding NBS DNA” value is at most 0.2.

Turning to LRSF, the “one-hybrid fitness for binding NBS DNA” value was at most 0.2.

As to HRGC, the “one-hybrid fitness for binding NBS DNA” value is at most 0.2.

On to ITKL, for which the “one-hybrid fitness for binding NBS DNA” value is at most 0.2.

Consider RLQM, for which the “one-hybrid fitness for binding NBS DNA” value is at most 0.2.

On to EPLD, for which the “one-hybrid fitness for binding NBS DNA” value was at most 0.2.

As to VTGW, the “one-hybrid fitness for binding NBS DNA” value is at most 0.2.

Turning to CHTT, the “one-hybrid fitness for binding NBS DNA” value was at most 0.2.

Consider TWCC, for which the “one-hybrid fitness for binding NBS DNA” value was at most 0.2.

With NING, the “one-hybrid fitness for binding NBS DNA” value was at most 0.2.

Take FWPN: the “one-hybrid fitness for binding NBS DNA” value was at most 0.2.

Regarding AEVG, the “one-hybrid fitness for binding NBS DNA” value is at most 0.2.

Consider NDRV, for which the “one-hybrid fitness for binding NBS DNA” value was at most 0.2.

As for EEYR, the “one-hybrid fitness for binding NBS DNA” value was at most 0.2.

As for EWTK, the “one-hybrid fitness for binding NBS DNA” value was at most 0.2.

NTYE: the “one-hybrid fitness for binding NBS DNA” value is at most 0.2.

Consider PGAN, for which the “one-hybrid fitness for binding NBS DNA” value was at most 0.2.

As for VVTG, the “one-hybrid fitness for binding NBS DNA” value is at most 0.2.

For the variant PRQP, the “one-hybrid fitness for binding NBS DNA” value is at most 0.2.

For WNWT, the “one-hybrid fitness for binding NBS DNA” value was at most 0.2.

In the case of DYSL, the “one-hybrid fitness for binding NBS DNA” value was at most 0.2.

Turning to TKHI, the “one-hybrid fitness for binding NBS DNA” value was at most 0.2.

In the case of VTKE, the “one-hybrid fitness for binding NBS DNA” value is at most 0.2.

Take CGAG: the “one-hybrid fitness for binding NBS DNA” value is at most 0.2.

As for LYKY, the “one-hybrid fitness for binding NBS DNA” value was at most 0.2.

With LPRQ, the “one-hybrid fitness for binding NBS DNA” value is at most 0.2.

ILRV: the “one-hybrid fitness for binding NBS DNA” value is at most 0.2.

In the case of LGHM, the “one-hybrid fitness for binding NBS DNA” value was at most 0.2.

Regarding KRQN, the “one-hybrid fitness for binding NBS DNA” value was at most 0.2.

In the case of SWSD, the “one-hybrid fitness for binding NBS DNA” value was at most 0.2.

Take VCKH: the “one-hybrid fitness for binding NBS DNA” value is at most 0.2.

Regarding ELMS, the “one-hybrid fitness for binding NBS DNA” value was at most 0.2.

As to ATPK, the “one-hybrid fitness for binding NBS DNA” value was at most 0.2.

With GNKW, the “one-hybrid fitness for binding NBS DNA” value is at most 0.2.

As to FYYI, the “one-hybrid fitness for binding NBS DNA” value is at most 0.2.

For the variant VYQD, the “one-hybrid fitness for binding NBS DNA” value is at most 0.2.

For the variant HFQG, the “one-hybrid fitness for binding NBS DNA” value is at most 0.2.

With TRRN, the “one-hybrid fitness for binding NBS DNA” value is at most 0.2.

As to CARW, the “one-hybrid fitness for binding NBS DNA” value is at most 0.2.

On to RVYT, for which the “one-hybrid fitness for binding NBS DNA” value came out at 0.357.

Take GNQS: the “one-hybrid fitness for binding NBS DNA” value is at most 0.2.

Consider STKT, for which the “one-hybrid fitness for binding NBS DNA” value was at most 0.2.

As to LLLV, the “one-hybrid fitness for binding NBS DNA” value is at most 0.2.

Turning to PAEK, the “one-hybrid fitness for binding NBS DNA” value was at most 0.2.

Turning to YKNV, the “one-hybrid fitness for binding NBS DNA” value was at most 0.2.

For CIAG, the “one-hybrid fitness for binding NBS DNA” value was at most 0.2.

Take QSIP: the “one-hybrid fitness for binding NBS DNA” value was at most 0.2.

In the case of DSPQ, the “one-hybrid fitness for binding NBS DNA” value was at most 0.2.

Turning to TIAC, the “one-hybrid fitness for binding NBS DNA” value was at most 0.2.

Regarding RIIH, the “one-hybrid fitness for binding NBS DNA” value was at most 0.2.

Take THGK: the “one-hybrid fitness for binding NBS DNA” value is at most 0.2.

Consider RTSH, for which the “one-hybrid fitness for binding NBS DNA” value was determined as 0.207.

As for QMAL, the “one-hybrid fitness for binding NBS DNA” value was at most 0.2.

For the variant ALND, the “one-hybrid fitness for binding NBS DNA” value was at most 0.2.

In the case of VLKH, the “one-hybrid fitness for binding NBS DNA” value is at most 0.2.

For TLAT, the “one-hybrid fitness for binding NBS DNA” value was at most 0.2.

Regarding QYPK, the “one-hybrid fitness for binding NBS DNA” value is at most 0.2.

Turning to VQSW, the “one-hybrid fitness for binding NBS DNA” value was at most 0.2.

With PLRI, the “one-hybrid fitness for binding NBS DNA” value is at most 0.2.

For the variant MKRI, the “one-hybrid fitness for binding NBS DNA” value was at most 0.2.

Regarding KPNV, the “one-hybrid fitness for binding NBS DNA” value was at most 0.2.

Consider AMLV, for which the “one-hybrid fitness for binding NBS DNA” value was at most 0.2.

For the variant LARF, the “one-hybrid fitness for binding NBS DNA” value was at most 0.2.

For AKDL, the “one-hybrid fitness for binding NBS DNA” value was at most 0.2.

Consider HRLT, for which the “one-hybrid fitness for binding NBS DNA” value is at most 0.2.

Turning to EGGC, the “one-hybrid fitness for binding NBS DNA” value was at most 0.2.

On to VQSE, for which the “one-hybrid fitness for binding NBS DNA” value was at most 0.2.

Turning to WELR, the “one-hybrid fitness for binding NBS DNA” value is at most 0.2.

NGVC: the “one-hybrid fitness for binding NBS DNA” value was at most 0.2.

As for PLLV, the “one-hybrid fitness for binding NBS DNA” value was at most 0.2.

Turning to KSSE, the “one-hybrid fitness for binding NBS DNA” value was at most 0.2.

For CPTA, the “one-hybrid fitness for binding NBS DNA” value is at most 0.2.

For KHYG, the “one-hybrid fitness for binding NBS DNA” value is at most 0.2.

Regarding ETAE, the “one-hybrid fitness for binding NBS DNA” value was at most 0.2.

As for ACHE, the “one-hybrid fitness for binding NBS DNA” value was at most 0.2.

With GLIT, the “one-hybrid fitness for binding NBS DNA” value was at most 0.2.

As to TILD, the “one-hybrid fitness for binding NBS DNA” value was at most 0.2.

EVTV: the “one-hybrid fitness for binding NBS DNA” value was at most 0.2.

For the variant RCIL, the “one-hybrid fitness for binding NBS DNA” value is at most 0.2.

Turning to YIGT, the “one-hybrid fitness for binding NBS DNA” value is at most 0.2.

For CYLA, the “one-hybrid fitness for binding NBS DNA” value is at most 0.2.

PEDE: the “one-hybrid fitness for binding NBS DNA” value is at most 0.2.

For the variant ANSW, the “one-hybrid fitness for binding NBS DNA” value is at most 0.2.

As for AALN, the “one-hybrid fitness for binding NBS DNA” value is at most 0.2.

In the case of QNWG, the “one-hybrid fitness for binding NBS DNA” value was at most 0.2.

Regarding YLMV, the “one-hybrid fitness for binding NBS DNA” value was at most 0.2.

With EASY, the “one-hybrid fitness for binding NBS DNA” value was at most 0.2.
